Data as given in the supplement of paper PMC3334620.
The full ranking holds about 33,000 sequences; the median of “E-score (-0.5 to 0.5)” is about -0.041, and the highest 2% start at about 0.37. This is one part of the list.

target: T1, Ecm22 (UniProt Q05958); test: PBM E-score (8-mer binding enrichment) (E-score (-0.5 to 0.5)); higher = stronger / more preferred TF binding; most listed sequences are background and not binding sites; settings: protein concentration: 200 nM; construct: GST-full length
T1 sequence: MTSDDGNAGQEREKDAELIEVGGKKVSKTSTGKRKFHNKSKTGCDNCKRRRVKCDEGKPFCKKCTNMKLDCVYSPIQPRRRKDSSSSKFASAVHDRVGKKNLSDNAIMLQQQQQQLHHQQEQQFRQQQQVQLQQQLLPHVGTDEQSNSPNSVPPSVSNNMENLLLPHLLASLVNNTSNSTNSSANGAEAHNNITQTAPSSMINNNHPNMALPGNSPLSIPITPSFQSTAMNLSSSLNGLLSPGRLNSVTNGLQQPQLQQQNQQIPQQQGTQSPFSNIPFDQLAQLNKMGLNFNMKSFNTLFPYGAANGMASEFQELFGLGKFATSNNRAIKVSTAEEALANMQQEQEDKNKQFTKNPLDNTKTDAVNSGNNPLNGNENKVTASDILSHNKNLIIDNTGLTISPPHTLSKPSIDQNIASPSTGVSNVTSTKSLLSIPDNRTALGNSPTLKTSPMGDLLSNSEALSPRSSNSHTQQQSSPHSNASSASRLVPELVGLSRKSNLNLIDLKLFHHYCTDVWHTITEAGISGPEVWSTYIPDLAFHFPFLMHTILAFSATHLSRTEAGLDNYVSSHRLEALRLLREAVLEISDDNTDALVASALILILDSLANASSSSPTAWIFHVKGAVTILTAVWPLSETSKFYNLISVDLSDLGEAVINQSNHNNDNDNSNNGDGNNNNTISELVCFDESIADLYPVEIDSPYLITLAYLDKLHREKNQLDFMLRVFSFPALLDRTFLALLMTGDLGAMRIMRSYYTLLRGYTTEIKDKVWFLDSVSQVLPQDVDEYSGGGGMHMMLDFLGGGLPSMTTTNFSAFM
Method in brief: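 Universal all-10-mer Agilent arrays, double-stranded by primer extension on fresh or once-stripped slides, were probed with about 100-200 nM GST-tagged yeast transcription factors made by PURExpress. Fluorescent anti-GST detected bound protein, and masliner normalised the scans. E-scores from the Universal PBM Analysis Suite were given to each ungapped eight-base word pooled with its reverse complement.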

Sequence	PBM E-score
CGATGGAG	0.141
ACATATAC	0.136
CGGCAGGC	-0.0556
AGGCAAGG	-0.188
ACTGGGAT	-0.116
ATGGACGG	-0.0733
CGGCGGGC	0.00972
ACGCTGGG	-0.237
GGTAGTTA	-0.169
GTGATTCA	-0.129
AAAGAACC	-0.035
GCAGCGTA	-0.0188
AAAGGCCT	-0.114
AACTTTCA	0.0277
GCTCTCCA	-0.28
CTGACCGA	0.196
CTAGTTCA	-0.0832
AGATCGGC	-0.106
AGGGATAG	-0.109
TACTGATA	0.116
AGTCACAC	-0.245
CTTTTTGC	-0.0572
AGATGTAG	-0.191
ATTTAGAC	-0.0454
GCGCGTAA	0.142

Sequence	PBM E-score
TAGATAGA	-0.173
TCATTCGA	-0.00089
ATTGCAAC	0.029
CCAACGCC	-0.19
AAACCGGG	-0.0388
CAAGCTGG	-0.19
AGGTGCGA	0.233
GCTGCTGA	0.0691
AGAAAGAA	-0.0521
AACTGCGA	0.0201
AACCCCAG	-0.295
CTGGAAGA	-0.138
ATTTTTCC	0.144
AACCCCCG	-0.185
CTAACGTC	-0.1
CGCTGGAG	0.05
CACGAACG	0.312
ACCGCCTG	-0.112
ATCTACCA	-0.108
GAGGACTA	-0.113
GAGTGACA	-0.0577
ATGCCTAA	-0.271
GCGGGAAC	0.157
CCCACCAC	-0.129
GATGGTGA	-0.0723

Sequence	PBM E-score
AACCTCCA	-0.265
GACTGCGA	-0.257
AGGGTCGC	0.0776
GAACGAGC	0.483
AATAAGCA	0.0445
ACGCCAAG	-0.113
CCGGGCTC	0.00213
ACTGGGGA	-0.183
ATACGCAA	0.239
AACTGGAC	-0.085
AGTCTTGA	-0.263
AAGAAGCG	-0.031
CGATTCAC	0.12
AATTATCA	0.073
AGGACACG	-0.0906
ACTAACCG	0.238
ATAAGAAA	-0.0976
ACCCGAGT	0.225
TACCTACA	-0.0657
AACTTTCC	-0.176
TTATCGAA	0.0613
CTAACTCC	-0.0929
ATCGTAGA	0.272
AACGAGAA	0.424
AACGAAAA	0.364

Sequence	PBM E-score
CTTACGTA	0.163
TAGTCGGA	0.0965
ATGCTTTC	-0.0199
AAAAGAAG	-0.15
GGTATTTA	-0.00022
GAACTTGA	-0.0118
ACGGACCG	0.203
AGGTGGTG	-0.135
CTATAGAA	-0.0568
GATGATCC	0.111
CCGGAGAG	-0.097
CTAACCGC	0.0805
ACTCGGGC	-0.0393
ATTTCCCC	-0.11
GTTGTCGA	-0.059
GATGCACA	0.0713
ATGATGTA	0.0103
AGCACATA	-0.117
ATGGATGG	-0.0745
CGGCTCGA	0.101
ATTACCGG	-0.0764
TCTAGTAA	-0.124
CATCCTGG	-0.134
ACAGCCGT	0.11
CGTAGGAA	0.196

Sequence	PBM E-score
ATTAGCAG	-0.174
CCATTGGC	-0.269
AGTTTCGA	-0.16
TCATTAGA	0.0734
AGACCTGG	-0.309
TCGCGCCA	-0.128
ATTACTAC	0.129
ATGCTAGA	-0.128
ACCGAACC	0.0703
GGCGTATA	0.359
AAGTTATA	0.0296
ACGGAGAC	0.0742
GCTAGCGA	-0.039
ACAAAGCG	0.0907
GATTAACA	-0.00865
CGGAGTGC	0.0703
AGCGTTTG	0.031
GGGCGGGA	0.0564
AGCAGCAA	-0.194
ACAGGGGT	-0.174
ACGACCGT	0.341
GCAGGCAC	-0.202
AGGATCGC	-0.0686
CGAGTACA	0.246
ACCAACAC	0.107

Sequence	PBM E-score
CCGTCCAA	-0.192
ACCCTTAA	-0.0578
ACTACCCT	-0.262
GACTCCAC	-0.35
AGCTGCAC	-0.162
CTAAGAAA	0.128
AACTCACA	-0.104
CCAACCAC	-0.0514
TCGGGCCA	-0.0681
ACTCTTTG	-0.116
ACTTACAT	0.00759
CCCGCTAC	0.214
AGAAACAC	0.0005
ACCATAAC	0.0883
GACGTCAC	-0.163
AAAAGGAT	-0.0106
CACGTAAA	0.106
CCTCTGTC	0.0319
CTCAGTAC	0.00028
ACTGGCTA	-0.332
AGCGTGCC	-0.145
GAGTTCCA	0.00497
CGCCCCAA	-0.0098
GCTGTCCC	0.14
CGTTTCTC	0.295

Sequence	PBM E-score
AGGAGTAG	-0.181
AGATAGGA	-0.244
ACATCGAA	0.0967
CAACAAGA	-0.0196
CCACCTAC	-0.381
CATAAAAG	-0.0794
AACTCCAA	-0.166
AGGACCAA	-0.168
GCTTAGAA	0.00571
AATCCATC	-0.0103
CTGTAGCA	-0.156
CAAAGTTA	-0.0884
GGCTCGGA	0.0976
CAAGCGAA	0.257
ATTTGGGG	-0.042
TCGGCCCA	-0.0933
ATCTTAAT	-0.0808
CTGGTTAC	-0.145
AGCAACTA	0.0519
GAGGCGAC	0.00633
CCTTAGTC	-0.193
TCGTTACA	0.293
AAGGCCGG	-0.156
GGTAGGGA	-0.154
CCCTTAAA	-0.125

Sequence	PBM E-score
ATTTCCAG	-0.151
CCCATATC	0.00408
GCTTCTAA	-0.183
CGCAACAA	0.0504
AAAACAAC	-0.286
CACATAGG	-0.283
CCTCCATC	0.00271
CAGGTTGA	-0.111
ATTGCTTC	0.0317
AAAATAAG	-0.0771
CGAACGCA	0.242
GCGCCTCA	-0.235
CACTCAAG	-0.14
ACATTTCT	0.0423
AGGGCAAC	-0.236
CCATGCAG	-0.246
ATCGCGGC	0.107
AACCGGCA	-0.114
AAGACCGC	-0.156
TCCGGAGA	-0.168
ACCAACTA	0.0214
CCACCTAG	-0.204
CATCATCG	0.032
GCTGGGCA	-0.155
TAGGCAGA	-0.0781

Sequence	PBM E-score
AGGTCCTC	0.0692
AGCGTGAA	0.0147
ATCTGACC	0.0893
ATTTACGA	0.453
GAGTGATC	0.0822
CACGGAAG	-0.202
GAGCGCGA	0.214
GCTGCTCC	-0.176
AACGTAGC	0.18
ATGACTTA	0.0397
CGCCGTCA	-0.184
ACCCTTCT	-0.107
TCCGCTAA	0.00479
CGCTGTAC	0.155
ACATGGGC	-0.263
TCGCTGCA	0.0954
CTGGATTA	-0.0757
TTACACAA	-0.0124
CTGTAGAC	-0.238
ATACTCGA	0.0999
CGCGCGCG	0.181
CGGTGTAG	0.0391
ATAGTACA	0.151
CCATTCTC	-0.163
AGCTGCGC	-0.0377

Sequence	PBM E-score
TAAATCTA	-0.115
AGGGAAGG	-0.354
ACTTGCGC	0.098
ACCACTTC	-0.0644
AAGCATCA	-0.234
AACGCAAT	0.0229
TCTCAAGA	-0.347
GTCTTGGA	-0.291
CGTATGGC	0.4
AATAGAGC	0.124
GGCCCGGA	-0.142
AAGAGTAC	0.0468
CCGCGCCC	-0.233
GCTCCCGA	-0.0232
CGAGGTCA	0.267
CAAAATCA	-0.0208
ACGCAAAC	0.21
ACCCCAGC	-0.0441
ATTACGAA	0.349
CCCGACAG	-0.221
CGGCATAG	0.0278
CCCATCAG	-0.211
TATTTTAA	0.0538
AGGCCGGC	-0.232
CCCGTTAG	-0.235

Sequence	PBM E-score
ATATGAAT	-0.0784
ATGAACTA	0.0245
AGGTGCTA	-0.0525
GATGGTGC	0.0158
ATACGTGA	0.171
ATGTCTAG	-0.0927
CCTCGGTA	0.152
CCCAGCCA	0.0727
ACGTCTTC	-0.126
CGCGTTAG	-0.0122
ACCTATGC	-0.0281
CAGAAGGG	-0.119
CCGCCAGA	-0.0907
ACGCCACG	-0.0847
GACACACA	0.0148
ATCCGCCC	-0.0715
CCCATGCC	-0.293
CACGCAAC	0.122
AACACCTA	-0.128
ACGGTCAC	0.0169
CAGCAGCC	-0.0927
CGTACCAC	0.446
GCTACCCC	-0.29
AGTGACCA	-0.0296
ATATATTA	0.182

Sequence	PBM E-score
GTGAACAC	-0.176
GGCGCGAA	-0.135
AGTAAGTG	-0.0907
TCTTAGCA	-0.0542
CGCGCGAC	0.213
ACACGCAC	-0.0814
ACACTGTG	-0.1
TCCGAACA	0.0654
AAAGGGGA	-0.26
ACACCTAT	0.00662
TGTTAGAA	-0.191
GGTTTCAC	-0.118
GTAACTTA	0.219
GTATAAAA	0.335
GCCTCTCA	-0.121
CATCCCGA	-0.0338
GGCTGGGA	-0.0886
TCGTTAGA	0.314
CTGTTGGC	-0.208
ACGAGTGA	0.34
ACAACATG	0.16
AGTTCTAT	0.0858
ATGCGGAG	-0.132
CGATACTC	0.183
CCGTGAGG	-0.373

Sequence	PBM E-score
CCCAGGCA	-0.356
AACCTCTC	-0.26
AGACGTAC	0.177
AACGGCCG	0.23
TCGATCGA	-0.00294
ACATTTAG	-0.231
AATCCTGG	-0.243
GATAGGTA	-0.00683
GCTCGCGA	0.283
CGCCGTGC	-0.239
CATGCCAG	-0.154
CGCTTAGA	0.231
GTTCTCTA	0.127
GAAGGTGC	-0.0545
AAACCCTT	-0.119
CATCGCCA	-0.11
GATATCTA	0.032
AGCGTTAT	-0.0408
ACGATGTC	0.237
AACTGGCC	-0.0821
CCAAGATA	-0.0891
AGCTACAC	-0.0236
CTTCTCGC	0.225
CGGCTGAC	0.0527
GATACAGA	0.00964

Sequence	PBM E-score
ACGAATCG	0.354
CGGTTGCA	-0.06
CGGAGCCG	0.156
AGCGAACG	0.296
CGTTTCTA	0.253
ATTTCGCC	0.131
GATACCTA	0.119
ATCATGAG	0.0728
CCCACGAA	0.0243
CTTAGGAC	-0.131
TACTAGCA	0.0755
AGTGTTTG	0.0855
TCCAGTAA	-0.171
CCTCAAGG	-0.249
TGGCGTAA	0.0429
AGGCGTGA	-0.0388
CAAGGCAG	-0.298
AAAGAGGC	0.0837
CGATCCAC	0.201
